# Data from PMC4336329 (PLoS ONE, 2015).
# Hit rate of the full screen: of about 310,000 compounds, about 2,200 (0.71%) showed an effect of 50% or more. Effects have a minus sign here. This is one part of the list.
# Target: human ether-à-go-go-related gene (hERG) potassium channel (human, UniProt Q12809)
# Assay: primary screen, population patch clamp on CHO cells stably expressing hERG
# Chain of human ether-à-go-go-related gene (hERG) potassium channel (Q12809 whole entry, looked up): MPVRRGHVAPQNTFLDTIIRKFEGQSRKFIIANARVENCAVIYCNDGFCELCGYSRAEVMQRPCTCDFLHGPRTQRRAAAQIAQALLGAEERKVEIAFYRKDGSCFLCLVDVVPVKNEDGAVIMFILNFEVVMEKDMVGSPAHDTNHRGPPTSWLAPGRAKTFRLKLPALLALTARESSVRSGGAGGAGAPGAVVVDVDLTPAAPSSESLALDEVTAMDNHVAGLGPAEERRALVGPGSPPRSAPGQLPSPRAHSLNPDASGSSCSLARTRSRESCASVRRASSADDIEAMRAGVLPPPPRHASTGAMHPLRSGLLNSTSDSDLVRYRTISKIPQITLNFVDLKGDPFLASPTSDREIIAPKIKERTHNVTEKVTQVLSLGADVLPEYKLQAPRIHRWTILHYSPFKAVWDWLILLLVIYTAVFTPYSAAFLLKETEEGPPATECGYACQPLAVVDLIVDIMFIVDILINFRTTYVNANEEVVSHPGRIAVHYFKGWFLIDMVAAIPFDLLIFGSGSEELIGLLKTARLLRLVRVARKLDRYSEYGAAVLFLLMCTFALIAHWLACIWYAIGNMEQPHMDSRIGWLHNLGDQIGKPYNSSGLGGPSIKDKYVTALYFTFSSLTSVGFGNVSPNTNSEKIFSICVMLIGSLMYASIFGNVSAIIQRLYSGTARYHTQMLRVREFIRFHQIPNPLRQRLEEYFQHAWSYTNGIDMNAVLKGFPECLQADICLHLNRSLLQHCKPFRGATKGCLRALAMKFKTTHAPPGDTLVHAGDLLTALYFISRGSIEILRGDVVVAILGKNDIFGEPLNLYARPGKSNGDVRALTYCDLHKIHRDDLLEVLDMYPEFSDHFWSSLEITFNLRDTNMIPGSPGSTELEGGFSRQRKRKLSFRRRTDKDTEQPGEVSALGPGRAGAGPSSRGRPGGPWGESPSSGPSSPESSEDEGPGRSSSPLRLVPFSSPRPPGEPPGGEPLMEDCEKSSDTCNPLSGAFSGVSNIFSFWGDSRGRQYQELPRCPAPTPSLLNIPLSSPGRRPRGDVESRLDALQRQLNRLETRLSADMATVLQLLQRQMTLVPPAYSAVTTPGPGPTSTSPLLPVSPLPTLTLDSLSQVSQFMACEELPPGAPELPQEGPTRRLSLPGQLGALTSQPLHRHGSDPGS
row,SMILES,"hERG current change (%, negative = inhibition) at 1uM [%]"
1,CCCCCN(C(=O)NC(=O)Nc1ccccc1OC)S(C)(=O)=O,12.4
2,COc1ccc(-n2cnc3ccccc32)cc1,8.56
3,Cc1ccc(C(=O)OCC(=O)NCCc2ccccc2)cc1S(=O)(=O)N1CCOCC1,9.31
4,Cc1cc(C)cc(NC(=O)c2sc3nc4n(c(=O)c3c2C)CCC4)c1,7.14
5,Cc1cc(C)c2c(CC(=O)O)coc2c1,7.05
6,CS(=O)(=O)N1CCC(C(=O)NCc2ccc(Cl)cc2)CC1,8
7,COc1cccc(CN2CCN(Cc3cccc(Br)c3)CC2)c1OC.O=C(O)C(=O)O,2.52
8,COc1cc(S(=O)(=O)N2CCN(C)CC2)c(OC)cc1Cl,13
9,C[C@@]12C(=O)Nc3ccc(Cl)cc3C(=O)N1[C@H]1c3ccccc3OC[C@@H]1[C@@H]2c1ccccc1,17.5
10,COc1cc(NC(=O)CN2CCN(C(=O)C3CCCO3)CC2)c(OC)cc1Cl (centres unmarked),10.7
11,COc1ccc(CN(C)CC(O)COc2ccc(C(=O)c3ccccc3)cc2)c(OC)c1OC (centres unmarked),-37.5
12,CCCC1=C(C(=O)OCC)C(c2cccs2)C(C#N)=C(N)O1 (centres unmarked),0.822
13,CCN1CCN(c2ccc(S(=O)(=O)N3CCCCC3)cc2NC(=O)Cc2c(F)cccc2Cl)CC1,9.43
14,COc1ccc(NC(=O)CNS(=O)(=O)c2ccccc2)cc1Cl,11.3
15,CCC1(C)N([O-])C(C)=C(c2ccccc2)[N+]1=O (centres unmarked),8.03
16,COc1ccccc1CNC(=O)COC(=O)C1CCN(S(=O)(=O)c2ccc(C)c(C)c2)CC1,9.15
17,CNC(=S)N1CCN(c2ccc(OC)cc2)CC1,12.8
18,Cc1cc(CN(C)Cc2c(C(=O)N3CCCCCCC3)nc3ccc(Cl)cn23)n[nH]1,3.99
19,Cc1cc(C)c2c(=O)[nH]c(SCC(=O)Nc3ccc(N(C)C)cc3)nc2n1,10.1

row,SMILES,"hERG current change (%, negative = inhibition) at 1uM [%]"
1,Cc1noc(NS(=O)(=O)c2ccc(NC(=O)C(F)(F)F)cc2)c1C,18.7
2,CCCn1c(SCC(=O)Nc2ccc3c(c2)CCC3)n[nH]c1=O,-2.48
3,CC(=O)NC(CC(=O)N1CCCC1)c1ccccc1 (centres unmarked),12.4
4,O=C(Nc1nnc(C2CCCCC2)s1)c1ccco1,3.58
5,CCOC(=O)c1cnc(-c2ccccc2)nc1N1CCOCC1,3.45
6,CCCn1c(C(C)Nc2nc(-c3ccc(Cl)c([N+](=O)[O-])c3)cs2)nc2cc(Cl)c(N3CCCCC3)cc21 (centres unmarked),19.3
7,Cc1cc(-c2cc(C(=O)Nc3ccccc3)on2)nc(NCC2CC2)n1,14.7
8,Cc1nc(Nc2ccccc2)sc1C(=O)c1ccccc1,12
9,O=C(CN1CCN(S(=O)(=O)c2ccc3ccccc3c2)CC1)N1CCc2ccccc2C1,10.6
10,c1ccc(-n2cnnc2SCc2cn3ccsc3n2)cc1,13
11,CC(CN1CCCCCC1)C(=O)NN (centres unmarked),14.9
12,Cc1ccc(C)c(OCC(=O)Nc2ccc(S(=O)(=O)Nc3ccccn3)cc2)c1C,9.08
13,CCCCNC(=O)COC(=O)C1CCN(S(=O)(=O)c2ccc3c(c2)OCCO3)CC1,13.1
14,COc1cccc(NC(=O)CN(C)CC(=O)Nc2ccccc2-c2ccccc2)c1,9.72
15,COc1ccc(-n2nc([N+](=O)[O-])c(=NCCCN3CCCC3=O)n2O)cc1,6.18
16,O=C(Nc1ccccc1)N1CCCN(c2nccc(C(F)(F)F)n2)CC1,2.75
17,CC(=O)NC1=NC(=O)/C(=C/c2cc(C)n(-c3ccc(NC(C)=O)cc3)c2C)S1,9.56
18,CC(=O)NC1(c2cccc(F)c2)CCN(C(=O)Nc2ccc(C#N)cc2)CC1,-0.772
19,CCN1C(=O)/C(=C\c2ccncc2)SC1=S,8.98

row,SMILES,"hERG current change (%, negative = inhibition) at 1uM [%]"
1,CC(C)(C)n1nc2c(c1NC(=O)c1ccccc1)CS(=O)(=O)C2,4.43
2,CC(C)(C)C(=O)Nc1ccc(C(=O)Nc2cc(NC(=O)c3ccc(NC(=O)C(C)(C)C)cc3)cc(C(=O)O)c2)cc1,15.1
3,O=C(CSc1nnc(CNc2ccc(F)cc2)o1)OC1CCCCC1,10.7
4,O=C(CSc1nnc2c(n1)[nH]c1ccccc12)OCc1ccccc1,13.2
5,CCCNC(=O)CSc1nnc(-c2ccccc2Br)n1-c1cccc(C(F)(F)F)c1,-0.613
6,CN(C)CCCN(C(=O)c1ccc(S(=O)(=O)N2CCCc3ccccc32)cc1)c1nc2ccc(F)cc2s1.Cl,5.2
7,COC(=O)c1ccc(S(=O)(=O)N2CCc3ccccc3C2)cc1,24.5
8,COc1ccc(S(=O)(=O)N2CCCCC2)cc1C(=O)N1CCCCCC1,11.4
9,CN(C)C(CNC(=O)C1CCN(C(=O)/C=C/c2ccccc2)CC1)c1ccccc1 (centres unmarked),11.1
10,Cc1onc(-c2ccccc2)c1C(=O)OCC(=O)N1CCC(C)CC1,0.342
11,O=C(NCc1cn2ccsc2n1)c1cccc(C(F)(F)F)c1,14.5
12,CCOC(=O)c1[nH]cnc1C(=O)Nc1ccccc1C,14.2
13,CCc1ccc(S(=O)(=O)n2c(C)nc3ccccc32)cc1,18.1
14,COc1ccc(/C=C2/SC(=O)N(CC(=O)NCCC(C)C)C2=O)cc1OC,7.05
15,Nc1[nH+]c(-c2ccc([N+](=O)[O-])cc2)cs1.[Br-],13.9
16,Cc1cccc(-c2nc3c(s2)CCc2onc(-c4ccc(Br)cc4)c2-3)c1,7.82
17,O=C(Nc1ccccc1F)N1CCCC1c1cccnc1 (centres unmarked),6.73
18,CC12CN3CC(C)(CN(C1)C3c1ccc3c(c1)OCO3)C2 (centres unmarked),15
